The other results are listed elsewhere or left out.
tested on: PfSIP2 AP2 domain 1 (GST-tagged); assay: gcPBM binding intensity (ln(normalized median fluorescence intensity)); higher = stronger DNA binding
Summary of the method: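 Binding of GST-tagged P. falciparum DNA-binding domains, expressed in E. coli and used at about 25 μg on average, was carried out for 1 h in 1× PBS containing 1% milk, 0.2 mg/ml BSA, 0.5% salmon testes DNA and 0.03% Triton X-100. The target was an Agilent 4 × 180k array of primer-extended double-stranded 36-bp intergenic genomic probes plus negative controls, read with Alexa488 anti-GST antibody at 488 nm. Binding intensity is the highest Masliner-normalised natural-log median intensity across replicate spots of either probe orientation.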

Row | Sequence | gcPBM binding intensity (ln)
1 | GTATAATTTAAAAAGTGTACATAAAGTTTTTATTAA [XGTACX_site1090] | 7.28
2 | AGTAATAAGTAATTTACACACATATTATAGCATCAC [CACACA_site6971] | 7.04
3 | AAAAAATTCAAAATCACACATAAAAAAGGACACATA [CACACA_site5972] | 7.29
4 | CCTACAATTCGTAATACACACACATATATATATATA [CACACA_site9251] | 9.52
5 | TCATATTATAAAAAATGTACAAGGAAAAAATATATA [XGTACX_site337] | 7.04
6 | TAATTTTGTAAAAATTGTACATATTTATCTTTTTAT [XGTACX_site4305] | 6.77
7 | ACATTATATAAAATATGTACACATAAATAAATAAAT [XGTACX_site5031] | 7.14
8 | AAAAAAAAAAAAAACACACACATATAATATATTTAA [CACACA_site1337] | 7.32
9 | ACAAACTAAAAAAGAAGTACAAATCGTATTAATAAT [XGTACX_site8684] | 7.11
10 | TTTTTTGAAAATAAAAGTACAAATTTTATATTTAAA [XGTACX_site2758] | 6.9
11 | AGAAAAAAACGGTACAGTACACATAAACTAATTATT [XGTACX_site8617] | 6.92
12 | TATTATATATGGAAGTAATAATATATATATATATAT [GTGCAC_negctrl_site63] | 9.02
13 | GATTAAATTTGACACTGTACAAAAAATAAAATGAGG [XGTACX_site504] | 7.36
14 | GTTAATTCATTAAGGACACACAAAAAAAAAAAAAAA [CACACA_site998] | 7.01
15 | ATGAATATAAAATATACACACTTATATATTGAATGA [CACACA_site4274] | 6.71
16 | CCAACATAGAGGGGCACACACATATATACATAAAAA [CACACA_site1847] | 7.83
17 | AGTATACATATATATACACACACATATATATATATA [CACACA_site7883] | 9.43
18 | CTTATATGAAGCCTCTTTATTCATAAATAAGAATAA [TGCATGCA_negctrl_site120] | 7.02
19 | AAACAACATGGACACGCACACACAAAAAAAGCATGC [CACACA_site73] | 7.21
20 | TTAACAAAATTTCCGTGTACGTAAATAAGAACATAG [XGTACX_site7200] | 7.25
21 | TTACATACATACAAGTGTACGCATATATTAATATTA [XGTACX_site4006] | 7.52
22 | ATATGTACAAGTTATACACACATGTACAGTTATATA [CACACA_site6706] | 7.11
23 | TTTAACATTTCAGATGTGCACATTTTCCGAACCAGT | 9.72

Row | Sequence | gcPBM binding intensity (ln)
24 | AGAACGACTAAGCAGTGTACATTTTGTATATACAAT [XGTACX_site2831] | 7.07
25 | AAAGAACTTAATGCTGCACACAAAAAAAAGGAAAAA [CACACA_site8375] | 6.91
26 | TAAATGTGTATATATTGTACAAATATTAATACATAC [XGTACX_site8102] | 6.96
27 | AAATTGTTAAAAAGAAGTACATTCTTTTATTTCTTA [XGTACX_site540] | 6.92
28 | ATAATGAAGACTTTTTTACACACTTCATATATTATA [CACACA_site8630] | 6.96
29 | TGATATTTTTCCATAGTGCAAAATATAGTAATGTAT | 8.15
30 | ATGTACTATGATAATGCATGCAATAATACATTTTTA [TGCATGCA_site318] | 6.88
31 | TTATTATGTATATATGCACACAATACCCAAAACAAC [CACACA_site80] | 9.34
32 | TAATATATATATAATACACACTATTTTAATCACATA [CACACA_site4849] | 6.87
33 | TTTATTGCTCTATATGCACACCTTAATTCTTCATTT [CACACA_site8682] | 7.42
34 | GAAGATTTATCTTGCACACGCAAAAAAAAAAAAAAA [CACACA_site154] | 6.97
35 | GAAAATATTTCTATCTGTACTTATTTATATATATAT [XGTACX_site7317] | 8.87
36 | AAAAATAATCATAGTAGTACAAAAAAAAAAAAAAAA [XGTACX_site3736] | 7.04
37 | TACGTAAATTCTAATACACACTATAGGATATTCTGC [CACACA_site7248] | 6.7
38 | TTTTTATGAAAATAAACACACGATTTATTATATATA [CACACA_site1311] | 6.7
39 | TTCTATATATTATATGCATGTAAAACATATTAAAAT [TGCATGCA_site662] | 7.12
40 | TGCATGTAATTTTTGTGTCCACATAAAATATTTAAT [XGTACX_site5652] | 7.1
41 | TTTTTCAATTGTAGTGGTACAGATATAATTATCTCT [XGTACX_site5500] | 6.93
42 | ATCATTTTTTATGCGTGTACATAAATTTATTAGGTT [XGTACX_site2786] | 7.52
43 | TAATTATTACACGGTATTATATATAATATGTTAAAA [GTGCAC_negctrl_site134] | 6.91
44 | TTTTTTGTTAAACCGGTGCATATAAATATATATATA [GTGCAC_site9989] | 9.54
45 | CACAAAAAAGTTCATACACACAACATATTTATATAT [CACACA_site2887] | 6.98
46 | TTTTTTTTTTTTCTGTGTACATATATAATATATATA [XGTACX_site1592] | 7.53

Row | Sequence | gcPBM binding intensity (ln)
47 | ATATCTATATTTTAAAGTACGTAGTAAAAAGAAAAA [XGTACX_site4323] | 6.98
48 | TTTTATGAAAAGATGAGTACACAATACTTTTTAATT [XGTACX_site8253] | 7.31
49 | TTATGTCGTAAATACACACATACATATACATACACA [CACACA_site1374] | 6.98
50 | TTGTCACTAATAGATGCATGCAATCATTCCATTTTT [TGCATGCA_site938] | 6.97
51 | TTGTAATGATATATTTGTACTTAATATAATTGTATA [XGTACX_site2748] | 6.91
52 | AATAAATTGAAACACACACACACATATATATATATA [CACACA_site848] | 9.2
53 | TAACAAAACATAGATTGTACATATTATAAATGTATA [XGTACX_site1543] | 6.99
54 | GTTACATACCTATACACACACATATATAAATAAATA [CACACA_site6549] | 7.46
55 | TATTCTTATCTTACCACACACAATGTACGAAAAGAT [CACACA_site6296] | 7.19
56 | ATATAAAAATACAGGTGTACATTTTTTCATATTTAT [XGTACX_site6959] | 7.18
57 | TTTCCCATAGGAAAAACACACATATATTATATATAA [CACACA_site1981] | 6.72
58 | CAATATTATATTACTTGTACACATATGTAGTTTCGA [XGTACX_site8945] | 7
59 | CAAAATATACACACGTGTACACAAATATTTACAAAA [XGTACX_site2257] | 7.29
60 | TTATTAAAAAAAATATGTACTCACAATATAATATAT [XGTACX_site3738] | 7.24
61 | GAAATTTTTAAAAAGGTGCTTTTAACAAAAATTATT [GTGCAC_site9687] | 7.81
62 | TTTTTTTTTTCTTGTTGTACTTTTAATAATTCATAT [XGTACX_site4704] | 7.01
63 | TATATATATATAACATGTACATAAAATACATTTATA [XGTACX_site7370] | 8.64
64 | ACCATCCTTAATACTTATTTTTTCACAATTAAGTAA [GTGCAC_negctrl_site269] | 7.33
65 | TTAGCAACTATTACTACACACATTTGTATATAATTT [CACACA_site1591] | 6.83
66 | AAAAAAAAAAAAAGATGTACATATATTTTTATTATA [XGTACX_site654] | 7.28
67 | AACCATTCTTCTAATTGTACATTGAAAAATCATGAT [XGTACX_site3854] | 7.07
68 | AAGGATATAAAAAAACGTACGTACGATAATATAATT [XGTACX_site1292] | 7.04
69 | AGTATTTTAATTTCAGTGCATTTTATTCTATAATTA | 8.53

Row | Sequence | gcPBM binding intensity (ln)
70 | AAAAAAAAAAAAAATGCATGTGCGTAAATAATAATA [TGCATGCA_site793] | 7.21
71 | AAGTTTTCTTACAGATGTACTTTTTAAAAATAAACT [XGTACX_site6632] | 7.05
72 | ATATATATCTATATTTGTACATATTACATTCAAGTT [XGTACX_site1749] | 7.31
73 | TTTAGGAAAGGCGGCACACATTTATATATTTATTTA [CACACA_site5931] | 6.81
74 | TTTTATCGATATATCTGTACATATTACTTATAATAA [XGTACX_site57] | 7.01
75 | TTAATTTATTTATGCACACATATATAATTACACATA [CACACA_site4544] | 7.61
76 | TGCTATAATTTATATACACACAAATATATACTCATA [CACACA_site6111] | 6.98
77 | TATAACTATTTATAATGTACTCATGTATAATTATAT [XGTACX_site7913] | 6.98
78 | TTTATATATTATATAAATATTATTATACTTTAAATA [TGCATGCA_negctrl_site236] | 6.79
79 | ATGCTTTTGTCATGTGCACACACGTATATATTATAT [CACACA_site4163] | 9.24
80 | ACATGTATTTATAAGAGTACATATGTGTGCATGTTT [XGTACX_site7946] | 7.67
81 | TTTATAATATACATAACACACAATTATTATTTCTTA [CACACA_site3624] | 6.92
82 | AACTTTTAGAAGAACACACACATATAGATTATGACC [CACACA_site6256] | 6.97
83 | TTTTTTTCCTTATCTATATATAATCAAATTTTCTAC [CACACA_negctrl_site867] | 7.1
84 | TTATAACAAATATAGAGTACTAAAATTTTACGTTAT [XGTACX_site1410] | 6.98
85 | TCGAACATTAACATAACACACATATATATATATATA [CACACA_site2900] | 9.65
86 | AAGGTTATTTATATATGTACTTAATATATATATATG [XGTACX_site886] | 7.15
87 | TATTTATACATACGTACACACAAATATTAAAATATA [CACACA_site7004] | 7.41
88 | ATTTTTTTTTTTTGTACATACCACATATACAAAACA [CACACA_negctrl_site1240] | 7.29
89 | TTTTTTTTTTTCTCCATACACACTTGATAAAACTTT [CACACA_site615] | 6.85
